Data taken from the supplement of paper PMC11417369.
± gives the standard deviation of the averaged measurements. The list shows a part of the results.

Tested on: PfAP2-I AP2 domain 3 (GST-tagged)
Assay: gcPBM binding intensity (ln(normalized median fluorescence intensity)); higher = stronger DNA binding
In short: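 In this array assay, P. falciparum DNA-binding domains with a GST tag, expressed in E. coli, were applied for 1 h to primer-extended double-stranded 36-bp intergenic genomic probes and negative controls on an Agilent 4 × 180k array. Bound protein was visualised with Alexa488 anti-GST antibody at 488 nm. Binding intensity is the highest Masliner-normalised natural-log median intensity across replicate spots of either probe orientation.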

Sequence | gcPBM binding intensity (ln)
TATTCTGGTGTAAATGCACACAGAAGAAGAAAAAAA [CACACA_site9225] | 9.53 ± 0.014
AAGGACACCTTCAAAACACACATACAAATAAATAGA [CACACA_site5771] | 7.75 ± 0.52
TTTTTTTTTTTTGTAATACACACCACTATATGTTAT [CACACA_site1844] | 8.15 ± 0.73
AATAAATAAAAAAAAAAAAAAAAAAAAAAAAAAAAA [XGTACX_negctrl_site343] | 8.32 ± 0.93
TTCTGTTGGAATATATGTACATAATAAAAAAAAATA [XGTACX_site1741] | 7.93 ± 0.37
AGTTTTATAAAAATATGTACTTATATACACATGTAT [XGTACX_site4022] | 7.96 ± 0.4
TATGGCAAAACATTCACACATATTTATATATGTGTA [CACACA_site5588] | 7.38 ± 0.42
TGTAGTCTGGAGAAAAGTACACAGTATCTGGTAACA [XGTACX_site2010] | 7.86 ± 0.49
TTATCTTAATTGTGATTATAAAGATATTCTTTCTAT [GTGCAC_negctrl_site410] | 7.17 ± 0.33
CAACCTCATAATATTTAACACACAAAATTATATGTA [CACACA_site8496] | 7.66 ± 0.2
CATTTAGAATAAGGCACACATAAAGAACACTTTCCA [CACACA_site130] | 9.62 ± 0.36
ATACCAAATGAATAATGTACATACGAACATACATAT [XGTACX_site1301] | 7.84 ± 0.42
ATATTTTTAACCAAGGACACAATTCTTGTATTGTTA [CACACA_negctrl_site1326] | 7.57 ± 0.62
GTACATTGTAAGGATGGAAAAGCTAAACATTATAAT [XGTACX_negctrl_site339] | 7.93 ± 0.61
TAAGTCGTTATAAGCACACACATAAATAAAAATAAA [CACACA_site1574] | 8.495 ± 0.035
ATATATTTATATAGGTGTACATATTTTGCTATTCAA [XGTACX_site5199] | 7.95 ± 0.42
TCAATTTTTTAATGTTGTACTTTGTAAAAAAAAATA [XGTACX_site8481] | 7.77 ± 0.28
AAGGGTTATAAAAATTGTACTTTTTTTATTTTTTTT [XGTACX_site1313] | 7.72 ± 0.56
AATAATTAAAATTATCTACACACCTTTATAAATATA [CACACA_site9300] | 7.54 ± 0.61

Sequence | gcPBM binding intensity (ln)
AATTTAAACAAGGATCCACACACCCCAAAAAAAAAA [CACACA_site8125] | 8.88 ± 0.19
CCTGAACACATACATACACACACACTAATAAAAAAA [CACACA_site8023] | 8.13 ± 0.29
GCCATTAATTTATACACACACATTATGATTTTTTAT [CACACA_site754] | 8.14 ± 0.65
AAAATGTGCCCACGCGTACACACAAAAAAAGAAAAA [CACACA_site2004] | 8.455 ± 0.035
TACAAACTATGATGCACACATATATATATGTATACA [CACACA_site1226] | 9.21 ± 0.15
ATGCATATGTTTATTGCACACACCAAAAAGAAAACA [CACACA_site403] | 10.2 ± 0.38
AAAAAAAAAAAAACATGTACATAAATGTAAAAAAGT [XGTACX_site8158] | 8.09 ± 0.52
AACATACACATATACACACACACATATATACATATA [CACACA_site1093] | 8.21 ± 0.3
ATTTTTTTTCTTTTTTTTTTACATTTTTTTCTTTTT [CACACA_negctrl_site1289] | 7.5 ± 0.71
AATTAAGTTAAACATTAAAAAAAACAAAAAATTAAA [CACACA_negctrl_site1333] | 7.42 ± 0.46
ACATATAAAATGTATACACACAAATATTACAGAGAT [CACACA_site4920] | 8 ± 0.59
GCTTTTGAAAATATACACATGTTAGGAATACAGGGG [TGCATGCA_negctrl_site480] | 8.6 ± 0.39
TATAATAACAATTTAGTGCATATAATAATATTTTAT | 10 ± 0.19
ATATATACATATATATGTACGTATATTTTTATTTCT [XGTACX_site6198] | 7.94 ± 0.52
ATTTAACAACTTCAAACACACAATATAGATTTATAT [CACACA_site7067] | 7.6 ± 0.54
TATAAACCCACCTACACACACAACGTAAATGCATTG [CACACA_site2238] | 8.23 ± 0.49
TGTGGGAATAACCACACACACACACGCATATAAATA [CACACA_site7634] | 7.97 ± 0.5
CTCATAAAAATAACGTTAACATAAATTTATTGTGAT [XGTACX_negctrl_site169] | 7.7 ± 0.53
TTTTCATATGAACAATGTACACATCGTATAATTCTG [XGTACX_site4756] | 7.8 ± 0.53

Sequence | gcPBM binding intensity (ln)
TGAACAGACGAGCACACACACACATATATATATATA [CACACA_site1019] | 9.6 ± 0.45
ATACATATTAAAGGATGTACACTTATATTTTTTAGA [XGTACX_site5406] | 7.75 ± 0.25
AATATAAAACATATCACACATATGTATTTATGTATA [CACACA_site5763] | 7.58 ± 0.31
TATATGTCAATATCTACACACATATATATAATTATT [CACACA_site3156] | 7.61 ± 0.43
TTTATATTATTTTAAACATGCACAAGTATAATTTAT [TGCATGCA_site233] | 8.25 ± 0.52
TAAATTTAGAAACACACACACATATATATATATATA [CACACA_site847] | 9.36 ± 0.38
TGTTCTCTTCTTTTTTATTTTCCAAAGTAATAAGTT [TGCATGCA_negctrl_site424] | 7.84 ± 0.69
TATATATATTTATATGCATGTAATATATTTGTATTG [TGCATGCA_site323] | 8.47 ± 0.64
CATAAATCAGCCATAACACACATACATAAATACATA [CACACA_site4380] | 7.83 ± 0.46
TTAATTATAATTATATGTACGAACTTTTTTTTTTTT [XGTACX_site6586] | 7.66 ± 0.25
AGAAAAAAGAGGGATACACACAAACATATATATATA [CACACA_site5269] | 9.285 ± 0.049
AATTATTTTATGAAAAGTACACATTGTTTTAATTCT [XGTACX_site4506] | 7.82 ± 0.38
TAAATAAGTATTACTAGTACACACAAGTTGTTAATC [XGTACX_site7074] | 7.9 ± 0.45
CATTTTTTAATAATAGCACACAGGACATACAAAACA [CACACA_site1245] | 8.53 ± 0.34
ACAGTATCTGGTAGCTGTACGAGTCGTAGAGTGTAG [XGTACX_site2011] | 8.23 ± 0.65
AATATATAAATAAATATATAAATAAATAATTGAAGC [CACACA_negctrl_site348] | 7.75 ± 0.59
TTCATTAATGTGTAATGTACTTGTAATATGGGATTA [XGTACX_site3903] | 7.76 ± 0.23
AAAATATAAAGTATTTGTACATAATATATTTTTAAA [XGTACX_site3494] | 7.39 ± 0.35
